Laboratory results from PMC4336329 (PLoS ONE, 2015).
Screen size: about 310,000 compounds; about 14,000 (4.5%) showed an effect of 50% or more. The effect is printed as a negative number. Some of the results follow.
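Note: peak tail current of the secondary pulse compared with the same well before compound.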

These molecules were tested against human ether-à-go-go-related gene (hERG) potassium channel (human, UniProt Q12809) (assay: primary screen, population patch clamp on CHO cells stably expressing hERG).
human ether-à-go-go-related gene (hERG) potassium channel, sequence (Q12809 whole entry, looked up): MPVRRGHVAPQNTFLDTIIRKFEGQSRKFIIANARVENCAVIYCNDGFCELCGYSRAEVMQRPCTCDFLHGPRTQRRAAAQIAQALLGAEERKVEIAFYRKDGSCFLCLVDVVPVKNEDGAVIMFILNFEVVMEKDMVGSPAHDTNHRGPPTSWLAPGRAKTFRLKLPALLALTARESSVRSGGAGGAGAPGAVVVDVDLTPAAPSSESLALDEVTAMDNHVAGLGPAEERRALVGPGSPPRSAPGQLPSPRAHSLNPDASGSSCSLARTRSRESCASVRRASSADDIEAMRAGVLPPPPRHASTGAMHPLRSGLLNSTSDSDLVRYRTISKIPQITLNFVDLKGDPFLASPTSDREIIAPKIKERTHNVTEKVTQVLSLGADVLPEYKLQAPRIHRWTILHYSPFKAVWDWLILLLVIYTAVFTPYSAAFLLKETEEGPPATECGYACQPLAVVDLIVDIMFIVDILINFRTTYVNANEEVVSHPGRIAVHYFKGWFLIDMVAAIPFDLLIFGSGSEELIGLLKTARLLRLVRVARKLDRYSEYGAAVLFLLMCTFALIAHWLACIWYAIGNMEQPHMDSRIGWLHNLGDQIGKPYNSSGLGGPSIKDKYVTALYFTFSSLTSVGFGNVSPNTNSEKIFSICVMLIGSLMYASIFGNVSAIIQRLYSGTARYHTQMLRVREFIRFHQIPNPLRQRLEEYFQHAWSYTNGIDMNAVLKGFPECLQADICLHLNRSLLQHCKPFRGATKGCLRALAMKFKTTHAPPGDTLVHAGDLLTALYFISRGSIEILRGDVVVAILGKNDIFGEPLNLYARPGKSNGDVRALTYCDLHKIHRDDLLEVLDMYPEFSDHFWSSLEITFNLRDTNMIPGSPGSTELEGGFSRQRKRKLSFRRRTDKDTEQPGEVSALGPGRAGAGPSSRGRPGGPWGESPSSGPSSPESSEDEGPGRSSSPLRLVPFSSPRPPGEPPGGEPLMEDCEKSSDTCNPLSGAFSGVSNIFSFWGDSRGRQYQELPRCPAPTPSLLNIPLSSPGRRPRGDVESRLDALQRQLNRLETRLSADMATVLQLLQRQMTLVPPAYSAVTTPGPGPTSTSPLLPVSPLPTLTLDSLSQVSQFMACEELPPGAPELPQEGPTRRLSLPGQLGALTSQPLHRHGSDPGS
`Cn1c(=O)[nH]c(=O)c2c1nc(SCC(O)CO)n2CCCc1ccccc1` (stereo not drawn) was tested, and the “hERG current change (%, negative = inhibition) at 10uM” value was 15.1%. With `O=C(O)CCNc1nc(C(F)(F)F)nc2ccccc12` the “hERG current change (%, negative = inhibition) at 10uM” value was 18.2%. In the case of `CCOc1ccc(CC(=O)Nc2c(C(=O)Nc3ccccc3)oc3ccccc23)cc1OCC`, the “hERG current change (%, negative = inhibition) at 10uM” value is reported as -7.78%. With `COc1ccc(-c2c(C#Cc3ccsc3)c3cc(Br)ccc3n2C)cc1` the “hERG current change (%, negative = inhibition) at 10uM” value was 0.881%. In the case of `S=c1[nH]nc(-c2ccc(Br)o2)n1Cc1ccccc1`, the “hERG current change (%, negative = inhibition) at 10uM” value is reported as 5.02%. In the case of `CCC(=O)N1CCc2cc(S(=O)(=O)NC(Cc3ccccc3)C(=O)O)ccc21` (stereo not drawn), the “hERG current change (%, negative = inhibition) at 10uM” value is reported as 19.6%. With `COC(=O)c1sc(NC(=S)NNC(=O)c2c(Br)c(C)nn2C)c(C(=O)OC)c1C` the “hERG current change (%, negative = inhibition) at 10uM” value was 24.8%. With `Cc1cccc(-c2n[nH]c(=S)n2Cc2ccccc2)c1` the “hERG current change (%, negative = inhibition) at 10uM” value was -2.87%. In the case of `COc1ccc(CCNC(=O)c2c(C)cc(=O)oc2C)cc1OC`, the “hERG current change (%, negative = inhibition) at 10uM” value is reported as 2.89%. In the case of `CN(C(=O)COC(=O)c1ccccc1OCc1ccc(F)cc1)C1CCS(=O)(=O)C1` (stereo not drawn), the “hERG current change (%, negative = inhibition) at 10uM” value is reported as -13.3%. For `Cc1cc(=O)[nH]c(SCc2cccc(F)c2)n1`, the “hERG current change (%, negative = inhibition) at 10uM” value was 20.6%. With `Brc1ccccc1-n1nnc(-c2cnc3ccccc3c2)n1` the “hERG current change (%, negative = inhibition) at 10uM” value was 14.9%. `CCC1(c2ccccc2)NC(=O)N(CC(=O)N(C)CC(=O)Nc2cccc(OC)c2)C1=O` (stereo not drawn) was tested, and the “hERG current change (%, negative = inhibition) at 10uM” value was 13.2%. With `Cc1nc2ccc(S(=O)(=O)NCC(=O)NCCN3CCCCCC3)cc2s1` the “hERG current change (%, negative = inhibition) at 10uM” value was 20%. `COc1ccc(NC(=O)CN(C)S(=O)(=O)c2ccc(Cl)cc2)c([N+](=O)[O-])c1` was tested, and the “hERG current change (%, negative = inhibition) at 10uM” value was 3.1%. In the case of `COc1ccc(CCNC(=S)NC(=O)c2cccc(Cl)c2)cc1OC`, the “hERG current change (%, negative = inhibition) at 10uM” value is reported as 1.73%. `CCOC(=O)c1ccc(N2C(=O)c3n[nH]c(C)c3C2c2ccc(OC)cc2OC)cc1` (stereo not drawn) was tested, and the “hERG current change (%, negative = inhibition) at 10uM” value was -7.21%. In the case of `Cc1c(Br)c(=O)oc2c(Br)c(O)ccc12`, the “hERG current change (%, negative = inhibition) at 10uM” value is reported as 19.9%. For `Cn1c2ccccc2c2cc(/C=N/NC(=O)c3ccc(O)cc3O)ccc21`, the “hERG current change (%, negative = inhibition) at 10uM” value was 21.3%. For `C[N+]1(CCC(=O)c2ccccc2)CCCCC1.[I-]`, the “hERG current change (%, negative = inhibition) at 10uM” value was 10.8%. With `CCN(CC)C(=O)CSC1=C(C#N)C(c2ccco2)C(C(=O)OCCOC)=C(C)N1` (stereo not drawn) the “hERG current change (%, negative = inhibition) at 10uM” value was 10.5%. In the case of `COc1ccc(CN2CCCN(S(=O)(=O)c3ccc(Br)cc3)CC2)cc1`, the “hERG current change (%, negative = inhibition) at 10uM” value is reported as -74.4%. `Cn1c(=O)oc2cc(S(=O)(=O)NCCC(=O)NCCc3ccc(Cl)cc3)ccc21` was tested, and the “hERG current change (%, negative = inhibition) at 10uM” value was -16.7%. For `CCN(CC(=O)NC)S(=O)(=O)c1ccc(Br)cc1`, the “hERG current change (%, negative = inhibition) at 10uM” value was 15.3%. `CCCC(C)C(=O)Nc1ccc(NC(C)=O)cc1` (stereo not drawn) was tested, and the “hERG current change (%, negative = inhibition) at 10uM” value was 11.5%. `COc1ccc2nc(NC(=O)C3CCCN(S(=O)(=O)c4cccs4)C3)sc2c1` (stereo not drawn) was tested, and the “hERG current change (%, negative = inhibition) at 10uM” value was 13%. `O=C(NC1CCCC1)c1cc2nc(-c3ccccc3)cc(-c3ccccc3)n2n1` was tested, and the “hERG current change (%, negative = inhibition) at 10uM” value was -23.3%. For `CN(C)CCOc1ccccc1C(C)(C)C.O=C(O)C(=O)O`, the “hERG current change (%, negative = inhibition) at 10uM” value was 5.47%. In the case of `Cc1nn(C(C)C(=O)N2CCOCC2)c(C)c1[N+](=O)[O-]` (stereo not drawn), the “hERG current change (%, negative = inhibition) at 10uM” value is reported as 4.08%. In the case of `CN1CC=C2C(C#N)=C(N)C(C#N)(C#N)C(c3ccncc3)C2C1` (stereo not drawn), the “hERG current change (%, negative = inhibition) at 10uM” value is reported as 14.4%. For `CNC(=O)c1sccc1-n1cccc1`, the “hERG current change (%, negative = inhibition) at 10uM” value was 1.52%. `CCOc1ccc(CCNC(=O)COC(=O)c2ccccc2O)cc1OCC` was tested, and the “hERG current change (%, negative = inhibition) at 10uM” value was -17.5%. For `O=C(c1ccc(OC2CCN(C/C=C/c3ccc(F)cc3)CC2)cc1)N1CCCC1`, the “hERG current change (%, negative = inhibition) at 10uM” value was -75.5%. In the case of `CN(C(=O)CCc1nnc(CCCCc2ccccc2)o1)C1CCOCC1`, the “hERG current change (%, negative = inhibition) at 10uM” value is reported as -7.51%. With `COc1ccc(NC(=O)COc2ccc(C)c(C)c2)cc1S(=O)(=O)N1CCCCC1` the “hERG current change (%, negative = inhibition) at 10uM” value was -13.5%. With `O=[N+]([O-])c1ccccc1/C=C/CN1CCCCC1` the “hERG current change (%, negative = inhibition) at 10uM” value was -6.44%. With `CCc1ccc(N2C(=O)CN(CC(=O)OC)C2=S)cc1` the “hERG current change (%, negative = inhibition) at 10uM” value was 9.74%. With `CC[N+](C)(C)Cc1ccccc1Br.Cc1ccc(S(=O)(=O)[O-])cc1` the “hERG current change (%, negative = inhibition) at 10uM” value was 21.3%. `Cn1nnnc1SCC(=O)NNC(=O)c1ccc(Br)cc1` was tested, and the “hERG current change (%, negative = inhibition) at 10uM” value was 7.32%. With `CC(/C=C/c1ccc2c(c1)OCO2)=N\NC(=O)c1cccc([N+](=O)[O-])c1` the “hERG current change (%, negative = inhibition) at 10uM” value was -3.5%. With `CCC(C)C(=O)Nc1ccc(S(=O)(=O)N2CCCC2)cc1` (stereo not drawn) the “hERG current change (%, negative = inhibition) at 10uM” value was 19.5%. In the case of `Cc1[nH]c(C)c(S(=O)(=O)NCCc2ccccc2)c1C(=O)N1CCCCC1`, the “hERG current change (%, negative = inhibition) at 10uM” value is reported as -8.31%. In the case of `CC(C(=O)N1CCOCC1)c1ccccc1` (stereo not drawn), the “hERG current change (%, negative = inhibition) at 10uM” value is reported as 16.5%. `CN(C)C(=O)N1CCC(C(=O)NCc2cccs2)CC1` was tested, and the “hERG current change (%, negative = inhibition) at 10uM” value was 6.81%. In the case of `O=C(COC(=O)CSc1ccc([N+](=O)[O-])cc1)NCc1cccs1`, the “hERG current change (%, negative = inhibition) at 10uM” value is reported as 2.31%.
